Experimental data reported in PubChem BioAssay AID624171 (National Center for Advancing Translational Sciences (NCATS), 2012).
In all, about 410,000 compounds went through this assay and about 1,200 (0.29%) were called active. Inconclusive results, whose numbers are uncertain, are shown with a selection of clear calls. The call rests on the fitted dose curve; in most records, active means well fitted activation curve with a large enough effect; inconclusive means small, poorly fitted or top-dose-only effect; inactive means flat fitted curve, though single readings scatter. Potencies of inconclusive entries are doubtful fits and often do not repeat.

Experiment: qHTS of Nrf2 Activators; further: nearly all actives have a fitted effect of over 65% in size; on activation: % of control where 0% means no effect
Details: AREc32 ARE-luciferase reporter (MCF7-derived line), luminescence, 24 h; activation: at 46.1 µM (top of the series)
Summary of the method: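 AREc32_Fluc, 1000 cells/well, OPTI-MEM + 5% FBS, o/n 37 deg C 5% CO2; 23 nL cpd by pin tool, 24 hr; Steady-Glo 30 min RT, luminescence.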
Potency means the concentration at half of the fitted maximal effect; tags describe the fitted curve by direction and shape.

Potency, inconclusive:
COCCNC(=O)c1cc(-c2cccs2)on1 11.2 µM [activator, partial curve], Cc1no[n+]([O-])c1COc1ccccc1/C=C1\NC(=S)NC1=O 22.4 µM [activator, single point], Nc1nc(Sc2ccc([N+](=O)[O-])c3nonc23)c2[nH]cnc2n1 22.4 µM [activator, single point], Clc1ccc(C=Cc2ccccn2)c(Cl)c1 7.08 µM [activator, partial curve, poor fit], N/C(=N\OC(=O)c1ccccc1F)c1cccc([N+](=O)[O-])c1 20 µM [activator, partial curve, poor fit], CC1CCCCN1C(=O)CSc1c2c(nc3cc(Cl)ccc13)CCCC2 (stereo unspecified) 20 µM [activator, single point], CCOc1cc(C2C(C#N)=C(N)Oc3n[nH]c(-c4ccccc4)c32)ccc1O (stereo unspecified) 25.1 µM [activator, single point], O=S(=O)(NCc1csc(-c2cccs2)n1)c1cccs1 12.6 µM [activator, single point], Cc1ccnc(NC(c2ccsc2)c2ccc3ccc(C)nc3c2O)c1 (stereo unspecified) 22.4 µM [activator, single point], O=C(Nc1ccc(S(=O)(=O)N2CCCC2)cc1)c1cc(=O)c2ccccc2o1 25.1 µM [activator, single point], O=C(Nc1nc2c(F)c(F)c(F)cc2s1)c1ccco1 12.6 µM [activator, partial curve, poor fit]

Potency, active:
Cc1ccccc1NC(=O)/C(C#N)=C\c1ccsc1 8.91 µM, CSc1ccc(-c2cc(=O)c3ccccc3o2)cc1 2.82 µM

activation, inactive:
COc1ccc(N2CCN(S(=O)(=O)c3ccc(Br)s3)CC2)cc1 0.0849%, CCc1nc2c(OCc3ccc(C#N)cc3)cccn2c1N(C)C(=O)c1ccco1 0.218% [at 9.22 µM], CC(C)(C)c1ccc(OCCOCCn2c(-c3ccc(Cl)cc3)nc3ccccc3c2=O)cc1 5.98%, CCCCNc1c(C(=O)OCC)c(C)nc2c1cnn2CC 4.83%, CCN(CC)C(=O)c1[nH]cnc1C(=O)N[C@@H](CCCCNC(=O)OC(C)(C)C)C(=O)OC(C)(C)C 2.1%, OCCN1CCN(c2cc(-c3ccc4ccccc4c3)nc3ccnn23)CC1 3.11%, COc1cc(NC(C)CCCN)c2ncccc2c1 (stereo unspecified) -3.03%, COc1ccc(Cc2c(-c3ccc(F)cc3)nc3ccc(Br)cn23)c(C)c1 7.21%
